The whole screen tested about 110,000 compounds, of which about 230 (0.21%) showed an effect of 50% or more. This is one part of the list.
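Note: 30 min substrate incubation versus DMSO and 10 µM JCP410 controls.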

Chain of DPAP1 (Q8IIJ9 whole entry, looked up): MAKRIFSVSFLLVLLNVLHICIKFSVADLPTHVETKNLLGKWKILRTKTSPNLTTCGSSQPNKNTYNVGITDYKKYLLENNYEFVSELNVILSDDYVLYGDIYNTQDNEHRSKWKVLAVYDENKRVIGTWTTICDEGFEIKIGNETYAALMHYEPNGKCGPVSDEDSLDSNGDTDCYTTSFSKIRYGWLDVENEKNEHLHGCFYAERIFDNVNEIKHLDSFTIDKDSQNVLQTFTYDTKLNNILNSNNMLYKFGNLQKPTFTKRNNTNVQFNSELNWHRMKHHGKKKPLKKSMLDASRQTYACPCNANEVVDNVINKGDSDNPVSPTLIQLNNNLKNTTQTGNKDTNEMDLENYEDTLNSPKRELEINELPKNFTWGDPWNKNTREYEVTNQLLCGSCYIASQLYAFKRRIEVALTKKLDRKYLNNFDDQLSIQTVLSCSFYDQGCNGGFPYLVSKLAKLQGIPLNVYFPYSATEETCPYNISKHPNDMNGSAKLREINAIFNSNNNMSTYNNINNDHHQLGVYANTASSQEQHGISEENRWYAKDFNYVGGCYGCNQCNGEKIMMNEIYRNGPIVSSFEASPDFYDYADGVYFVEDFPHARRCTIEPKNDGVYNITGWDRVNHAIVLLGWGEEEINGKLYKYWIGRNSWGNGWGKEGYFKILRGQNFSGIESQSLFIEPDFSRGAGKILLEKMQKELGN

The test has as its target DPAP1 (Plasmodium falciparum, UniProt Q8IIJ9). The experiment in a line: primary screen, percent inhibition; read by cleavage of a fluorogenic dipeptide substrate; higher = more effect of the substance. The arrangement: species or system P. falciparum D10 trophozoite lysates; single well.
For the compound `O=C(O)c1cccn1-c1nnc(N2CCN(C3CCCCC3)CC2)s1`, the “% Inhibition @ 10 uM” value came to 3.29%.

`O=C1/C(=C/c2ccco2)N(Cc2ccccc2)Cc2ccccc21`: the “% Inhibition @ 10 uM” value was -2.64%.

For the compound `COc1ccc(C2C(C#N)=C(N)Oc3cc(O)ccc32)cc1Br` (stereo not drawn), the “% Inhibition @ 10 uM” value is recorded as -6.82%.

Regarding `CCn1cc(C(=O)N(CCCN2CCOCC2)Cc2ccco2)c(=O)c2ccc(C)nc21`, the “% Inhibition @ 10 uM” value is 2.8%.

Regarding `O=C(c1cnn2c3c(cnc12)CCCCC3)N1CCc2ccccc2C1`, the “% Inhibition @ 10 uM” value is on record as 17.8%.

As to `CC(C)(C)c1cc(CN2CCN(c3ccccc3F)CC2)cc(C(C)(C)C)c1O`, the “% Inhibition @ 10 uM” value is recorded as 2.33%.

Consider `CCn1ncc(/C=c2/sc3n(c2=O)C(c2ccccc2)C(C(=O)Nc2ccccc2)=C(C)N=3)c1C` (stereo not drawn), for which the “% Inhibition @ 10 uM” value was determined as 0.235%.

Consider `O=C(/N=C1\S/C(=C/c2cccnc2)C(=O)N1c1ccccc1)c1ccccc1`, for which the “% Inhibition @ 10 uM” value is listed as 5.94%.

Regarding `CC1CCN(c2ncnc3sc4c(c23)CCC(C)C4)CC1` (stereo not drawn), the “% Inhibition @ 10 uM” value is -1.06%.

Take `O=C(CSc1nc2ccc(N3C(=O)c4ccccc4C3=O)cc2s1)N1CCOCC1`: the “% Inhibition @ 10 uM” value was -3.9%.

Consider `Cc1sc2ncn(CC(=O)NCC(=O)NCCN3CCOCC3)c(=O)c2c1C`, for which the “% Inhibition @ 10 uM” value is on record as 2.8%.

On to `CO/C(O)=C1/C(C)=NC(=S)NC1c1ccc(Cl)cc1` (stereo not drawn), for which the “% Inhibition @ 10 uM” value is reported as -1.5%.

In the case of `COc1ccc(OC)c(-n2cc(-c3ccccc3)nc2SC)c1`, the “% Inhibition @ 10 uM” value was found to be 4.49%.

As for `CCCCN(C)C(=O)/C(=C/c1cn(S(=O)(=O)N(C)C)c2ccccc12)NC(=O)c1ccc(C)cc1`, the “% Inhibition @ 10 uM” value is -1.74%.

On to `CCS(=O)(=O)c1nc(S(=O)(=O)c2ccc(Cl)cc2)c(NCc2ccc(OC)cc2)s1`, for which the “% Inhibition @ 10 uM” value is listed as 2.76%.

With `O=S(=O)(Nc1ccccc1Cl)c1cccc(C(F)(F)F)c1`, the “% Inhibition @ 10 uM” value is -0.999%.

With `O=C(Nc1ccccc1)/C(O)=C/C(=O)c1ccccc1`, the “% Inhibition @ 10 uM” value is on record as 4.17%.

Take `Cc1ccc(S(=O)(=O)NCCCOC(=O)Nc2ccncc2)cc1`: the “% Inhibition @ 10 uM” value is -5.01%.

In the case of `CC1(C)COC2(OC1)C(=O)Nc1ccccc12`, the “% Inhibition @ 10 uM” value was found to be 4.61%.

Take `CC1=NN(c2ccccc2)C(=O)/C1=C\c1cc2c(cc1Cl)OCO2`: the “% Inhibition @ 10 uM” value is given as -4.21%.

With `O=C1C2CN3CCN(C2)CC1(Cc1ccccc1)C3`, the “% Inhibition @ 10 uM” value is reported as -1.82%.

For the compound `NCCC1COc2ccccc2O1` (stereo not drawn), the “% Inhibition @ 10 uM” value was 0.0539%.

On to `COC(=O)c1cc(S(=O)(=O)NCc2ccccc2OC)c[nH]1`, for which the “% Inhibition @ 10 uM” value is -0.267%.

Consider `Cn1c(NCC(O)CO)nc2c1c(=O)n(Cc1ccccc1Cl)c(=O)n2C` (stereo not drawn), for which the “% Inhibition @ 10 uM” value is listed as -5.41%.

With `Clc1ccccc1C1C=C(c2cccs2)Nc2ncnn21` (stereo not drawn), the “% Inhibition @ 10 uM” value is -1.62%.

Take `Cc1ccc(NC(=O)C2CCN(S(=O)(=O)c3ccc(Cl)cc3)CC2)cc1C`: the “% Inhibition @ 10 uM” value was -5.3%.

Turning to `COc1cc(-c2nc3n(n2)C(c2ccncc2)C2=C(O)CCCC2=N3)cc(OC)c1OC` (stereo not drawn), the “% Inhibition @ 10 uM” value turned out to be 13.5%.
